Laboratory results taken from patent publication US20240215584A1, “ARTICLE HAVING ANTIVIRAL PROPERTIES, ARTICLE HAVING ANTIMICROBIAL PROPERTIES, AND ARTICLE HAVING ANTIFUNGAL PROPERTIES” (NATIONAL INSTITUTE OF ADVANCED INDUSTRIAL SCIENCE AND …, priority 2021, published 2024).
≈ marks a conversion by molar mass, not a printed value.

System: Pseudomonas aeruginosa resistance gene quadruple disruption strain YM64
Experiment: Minimum inhibitory concentration on bacteria
Conditions: 20 h, read-out: minimum inhibitory concentration (MIC)
Procedure: First, a method for measuring the minimum inhibitory concentration on the bacteria will be described. First, 100 μL per hole of a 96-hole test plate was prepared using a Mueller Hinton medium (CAMHB) (and blood added as needed) supplemented with 20 mg/L of Ca^2+ and 10 mg/L of Mg^2+ to give a 2-fold dilution series. As a reagent, chlorhexidine was used as an example, and norfloxacin, which is an antibiotic, was used as a comparative example. Each bacterium was cultured in CAMHB (blood added as needed) and added to each of the holes of the test plate at approximately 10000 CFU/mL. The cultures were cultivated at 37° C. for 20 hours, and growth of the bacteria was visually confirmed, and the lowest concentration without growth of the bacteria was defined as the minimum inhibitory concentration (MIC: Minimum Inhibitory Concentration). […]
Minimum inhibitory concentrations (MIC) were measured against drug-sensitive bacteria and drug-resistant bacteria.

SMILES | MIC [µg/mL]
CCn1cc(C(=O)O)c(=O)c2cc(F)c(N3CCNCC3)cc21 [Norfloxacin, norfloxacin] | 0.12 (≈ 0.376 µM)
N=C(NCCCCCCNC(=N)NC(=N)Nc1ccc(Cl)cc1)NC(=N)Nc1ccc(Cl)cc1 [chlorhexidine] | 2 (≈ 3.96 µM)
